Measurements: patent US20210363269A1 (ALX ONCOLOGY, published 2021)

T1: cynomolgus SIRP-α D1 domain (cyno1) (cynomolgus monkey, UniProt Q5TFQ8 30-148 (human entry), limits assumed)
T1 chain: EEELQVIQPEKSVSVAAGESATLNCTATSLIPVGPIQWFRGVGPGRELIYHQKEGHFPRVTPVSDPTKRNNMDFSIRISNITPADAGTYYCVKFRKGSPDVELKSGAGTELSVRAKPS

T2: cynomolgus SIRP-α D1 domain (cyno2) (cynomolgus monkey, UniProt Q5TFQ8 30-148 (human entry), limits assumed)
T2 chain: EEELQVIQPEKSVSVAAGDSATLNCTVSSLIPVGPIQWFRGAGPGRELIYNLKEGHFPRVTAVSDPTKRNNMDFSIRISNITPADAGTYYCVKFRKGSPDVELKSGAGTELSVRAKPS

T3: high affinity SIRP-α D1 variant CV1-3
T3 chain: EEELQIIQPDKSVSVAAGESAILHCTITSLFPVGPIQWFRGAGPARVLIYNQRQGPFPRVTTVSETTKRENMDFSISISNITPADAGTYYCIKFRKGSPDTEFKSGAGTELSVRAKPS

T4: NOD mouse SIRP-α D1 domain (mouse (NOD strain))
T4 chain: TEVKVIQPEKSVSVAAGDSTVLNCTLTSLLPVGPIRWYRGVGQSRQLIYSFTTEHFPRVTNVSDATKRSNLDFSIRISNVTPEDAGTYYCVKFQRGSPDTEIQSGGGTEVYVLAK

T5: mouse 129 SIRP-α D1 domain (mouse (129 strain), UniProt P97797 32-150)
T5 construct: also called m129
T5 chain: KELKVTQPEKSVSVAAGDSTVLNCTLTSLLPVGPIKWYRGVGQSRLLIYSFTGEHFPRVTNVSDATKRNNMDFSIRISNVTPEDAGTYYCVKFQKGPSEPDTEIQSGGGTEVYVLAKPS

T6: C57BL/6 mouse SIRP-α D1 domain (mouse (C57BL/6 strain), UniProt P97797 32-148)
T6 sequence: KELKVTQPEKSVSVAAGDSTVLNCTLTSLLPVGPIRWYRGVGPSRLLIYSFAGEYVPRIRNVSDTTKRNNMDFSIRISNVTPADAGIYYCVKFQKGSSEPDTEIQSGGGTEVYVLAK

T7: C57BL/6 mouse SIRP-α D1 domain (mouse (C57BL/6 strain), UniProt P97797 32-148)
T7 sequence: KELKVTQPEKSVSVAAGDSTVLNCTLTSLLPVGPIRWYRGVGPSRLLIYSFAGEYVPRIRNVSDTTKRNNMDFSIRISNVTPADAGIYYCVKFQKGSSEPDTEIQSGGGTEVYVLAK

T8: mouse 129 SIRP-α D1 domain (mouse (129 strain), UniProt P97797 32-150)
T8 construct: also called m129
T8 chain: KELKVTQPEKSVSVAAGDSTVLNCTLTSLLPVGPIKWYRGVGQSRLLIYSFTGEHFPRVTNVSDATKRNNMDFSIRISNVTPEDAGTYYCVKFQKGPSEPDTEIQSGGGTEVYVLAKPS

T9: NOD mouse SIRP-α D1 domain (mouse (NOD strain))
T9 chain: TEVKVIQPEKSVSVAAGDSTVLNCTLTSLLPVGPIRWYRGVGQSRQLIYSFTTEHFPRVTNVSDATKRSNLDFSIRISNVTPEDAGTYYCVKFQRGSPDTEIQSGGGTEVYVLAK

T10: high affinity SIRP-α D1 variant CV1-3 (human)
T10 chain: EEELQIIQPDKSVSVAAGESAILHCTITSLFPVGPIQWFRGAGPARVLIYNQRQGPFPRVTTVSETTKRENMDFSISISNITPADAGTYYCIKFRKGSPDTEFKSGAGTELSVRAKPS

T11: cynomolgus SIRP-α D1 domain (SEQ ID NO:12) (cynomolgus, UniProt Q5TFQ8 30-148 (human entry), limits assumed)
T11 construct: also called cyno2; Cyno2
T11 chain: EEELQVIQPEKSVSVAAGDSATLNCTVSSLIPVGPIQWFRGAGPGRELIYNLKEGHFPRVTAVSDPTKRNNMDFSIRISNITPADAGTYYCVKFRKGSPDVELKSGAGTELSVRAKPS

T12: cynomolgus SIRP-α D1 domain (SEQ ID NO:11) (cynomolgus, UniProt Q5TFQ8 30-148 (human entry), limits assumed)
T12 construct: also called cyno1
T12 chain: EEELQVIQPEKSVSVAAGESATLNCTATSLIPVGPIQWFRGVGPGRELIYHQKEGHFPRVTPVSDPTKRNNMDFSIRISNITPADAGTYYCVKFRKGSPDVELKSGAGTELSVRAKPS


Columns and labels:
[1] = biological target: T1, cynomolgus SIRP-α D1 domain (cyno1); experiment: SPR, Langmuir fit
Summary of the method: (§1)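 Dissociation rate constants (koff) were measured on a ProteOn XPR36 instrument by Langmuir model fitting. Antibody clones in scFv-Fc format were captured from pre-filtered culture media onto a GLC chip with about 4000 RU of amine-coupled anti-human IgG Fc. SIRP analytes ran in PBS pH 7.4 with 0.01% Tween-20 at 25° C, and the model used was 1:1, applied to data double-referenced against interspot and buffer-blank responses.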

[2] = biological target: T13, human SIRPγ isoform 1 (human, UniProt Q9P1W8 29-147); experiment: SPR, Langmuir fit
T13 construct: also called SIRPg; sirpg
Summary of the method: as §1

[3] = biological target: T14, human SIRPβ isoform 1 (human, UniProt O00241 30-148); experiment: SPR, Langmuir fit
T14 construct: also called SIRPb; sirpb1
Summary of the method: as §1

[4] = biological target: T2, cynomolgus SIRP-α D1 domain (cyno2); experiment: SPR, Langmuir fit
Summary of the method: as §1

[5] = biological target: T15, human SIRP-α v2 D1 domain (human); experiment: SPR, Langmuir fit
T15 construct: also called human v2
Summary of the method: as §1

[6] = biological target: T3, high affinity SIRP-α D1 variant CV1-3; experiment: SPR, Langmuir fit
Summary of the method: as §1

[7] = biological target: T16, human SIRP-α v1 D1 domain (human, UniProt P78324 31-149); experiment: SPR, Langmuir fit
T16 construct: also called human v1
Summary of the method: as §1

[8] = biological target: T4, NOD mouse SIRP-α D1 domain; experiment: SPR
Summary of the method: as §1

[9] = biological target: T5, mouse 129 SIRP-α D1 domain; experiment: SPR
Summary of the method: as §1

[10] = biological target: T6, C57BL/6 mouse SIRP-α D1 domain; experiment: SPR
Summary of the method: as §1

[11] = biological target: T7, C57BL/6 mouse SIRP-α D1 domain; experiment: SPR, captured scFv-Fc
Summary of the method: as §1

[12] = biological target: T8, mouse 129 SIRP-α D1 domain; experiment: SPR, captured scFv-Fc
Summary of the method: as §1

[13] = biological target: T17, human SIRPβ isoform 1 (human, UniProt O00241 30-148); experiment: SPR, captured scFv-Fc, 100 nM analyte
T17 construct: also called sirpb1; Sirpb1
Experimental: (§2) Binding of the antibody clones to various SIRP proteins was determined using surface plasmon resonance (SPR) detection on a ProteOn XPR36 instrument (Bio-Rad, Hercules, Calif.) using phosphate buffered saline (PBS, pH 7.4) supplemented with 0.01% Tween-20 (PBST) as running buffer. The pre-filtered media containing the secreted antibodies was used directly for the assay. First, anti-Human IgG Fc (BR-1008-39, GE Healthcare) was amine-coupled onto a GLC sensor chip to generate the capture surfaces for the antibodies. About 4000 RU per flow cell of immobilized anti-human IgG Fc is achieved. Each clone is screened using the same method as follows.
(§3) (1) ‥5-10 uL of pre-filtered media in 10 mM sodium acetate buffer (pH4.5) was injected for 2 mins at 30 ul/min;
(§4) The koff rates of binding of each clone to each SIRP analyte were determined using SPR (Table C). The SPR screening conditions have been described herein, and the Koff values were determined using Langmuir kinetic fittings. The CD47 blocking properties (block, non-block, kick-off) are described in the last column of the Table C. Each antibody is identified according to its corresponding SEQ ID NO. SIRP analyte sequences are as follows: CV1-3, SEQ ID NO:18; v1, SEQ ID NO:5; v2, SEQ ID NO:6; cyno1, SEQ ID NO:11; cyno2, SEQ ID NO:12; m129, SEQ ID NO:7; NOD, SEQ ID NO: 8; BL6, SEQ ID NO:9; sirpb1, SEQ ID NO:13; sirpg, SEQ ID NO:15.

[14] = biological target: T18, human SIRP-α v1 D1 domain (human, UniProt P78324 31-149); experiment: SPR, captured scFv-Fc, 100 nM analyte
T18 construct: also called human v1; human α v1
Experimental: as §2, §3, §4

[15] = biological target: T19, human SIRPγ isoform 1 (human, UniProt Q9P1W8 29-147); experiment: SPR, captured scFv-Fc, 100 nM analyte
T19 construct: also called sirpg; sirp-g
Experimental: as §2, §3, §4

[16] = biological target: T9, NOD mouse SIRP-α D1 domain; experiment: SPR, captured scFv-Fc, 100 nM analyte
Experimental: as §2, §3, §4

[17] = biological target: T20, human SIRP-α v2 D1 domain (human); experiment: SPR, captured scFv-Fc, 100 nM analyte
T20 construct: also called human v2; human α v2
Experimental: as §2, §3, §4

[18] = biological target: T10, high affinity SIRP-α D1 variant CV1-3; experiment: SPR, captured scFv-Fc, 100 nM analyte
Experimental: as §2, §3, §4

[19] = biological target: T11, cynomolgus SIRP-α D1 domain (SEQ ID …); experiment: SPR, captured scFv-Fc, 100 nM analyte
Experimental: as §2, §3, §4

[20] = biological target: T12, cynomolgus SIRP-α D1 domain (SEQ ID …); experiment: SPR, captured scFv-Fc, 100 nM analyte
Experimental: as §2, §3, §4

[21] = biological target: T7, C57BL/6 mouse SIRP-α D1 domain; experiment: SPR, captured scFv-Fc, 100 nM analyte
Experimental: as §2, §3, §4

Binder | binding result [12] | koff [13] | koff [14] | koff [15] | koff [16] | koff [17] | koff [18] | koff [19] | koff [20] | also measured
S116 (scFv) scFv: ETVLTQSPATLSVSPGERATLSCRASQTVGSKLAWHQQKPGQAPRLLIYDATNRATGISDRFSGSRSGTDFTLTISSLQTEDSAVYYCQQYYYWPPYRFGGGTKVEIKGQSSRSSGGGGSSGGGGSDVQLVESGGGVVRPGESLRLSCAASGFSFSSYAMNWVRQAPGEGLEWVSRINSGGGGTDYAESVKGRFTISRDNSENTLYLQMNSLRAEDTAVYYCAKQYDWNSFFDYWGLGALVTVSSSL[letters of human IgG1 Fc with C220S (EU numbers) and a few adjoining residues left out] |  |  |  |  |  |  |  |  |  | koff [1]: 7.01e-05 s⁻¹; koff [2]: 8.25e-05 s⁻¹; koff [3]: 3.09e-05 s⁻¹; koff [4]: 0.00012 s⁻¹; koff [5]: 5.07e-05 s⁻¹; koff [6]: 0.00048 s⁻¹; koff [7]: 2.84e-05 s⁻¹; binding result [8]: no binding (tested: Koff > 5 × 10^3 (legend)); binding result [9]: no binding (tested: Koff > 5 × 10^3 (legend)); binding result [10]: no binding (tested: Koff > 5 × 10^3 (legend))
S9 scFv-Fc (scFv) scFv: ALTQPSSVSANPGETVKITCSGDNSAHYYYGWYQQKSPGSAPVTVIYYNDKRPSGIPSRFSGSASGSTATLIITGVQVEDEAVYFCGSADSSNPAIFGAGTTLTVLGQSSRSSGGGGSSGGGGSMAAVTLDESGGGLQTPGRALSLVCRGSGFSISSYNMGWVRQAPGKGLEFIASIGSDGSSTHYAPAVKGRATITRDVGQSTVRLQLNNLRAEDTGTYFCAKDAYQCSYATCNDYLDTIDAWGHGTEVIVSSSL[letters of human IgG1 Fc with C220S (EU numbers) and a few adjoining residues left out] | no binding (tested: 100 nM) | 0.000103 s⁻¹ | 0.000129 s⁻¹ | 0.0071 s⁻¹ | 0.0181 s⁻¹ | 0.00014 s⁻¹ | 0.000168 s⁻¹ | 0.00027 s⁻¹ | 0.000338 s⁻¹ | binding result [11]: no binding (tested: 100 nM)
S12 scFv-Fc (scFv) scFv: AVTQPASVSANPGETVKITCSGDSSYYGWYQQKSPGSAPVTVIYDDNKRPSNIPSRFSGSKSGSTGTLTITGVQADDEAVYFCGNEDNSYVAIFGAGTTLTVLGQSSRSSGGGGSSGGGGSMAAVTLDESGGGLQTPGGALSLVCKASGFTFSSYNMGWVRQAPGKGLEFVAGIYIASGDLGTTYGAAVQGRATISRDDGQSTVRLQLNNLRAEDTGTYFCAKSAGGCSAHSCDTYIADSIDAWGHGTEVIVSSSL[letters of human IgG1 Fc with C220S (EU numbers) and a few adjoining residues left out] | no binding (tested: 100 nM) | 0.000173 s⁻¹ | 0.000101 s⁻¹ | 0.000307 s⁻¹ | 0.026 s⁻¹ | 0.000168 s⁻¹ | 0.0515 s⁻¹ | 0.000524 s⁻¹ | 0.00117 s⁻¹ | koff [21]: 0.00198 s⁻¹
